In patent publication US20250154277A1 (CONCEPT TO MEDICINE BIOTECH, published 2025):

Target: T1, cynomolgus 5T4 protein (cynomolgus monkey, UniProt Q4R8Y9 35-355, limits assumed)
T1 construct: Coated protein in ELISA; the screening step names a cyno 5T4-His protein; also called cyno 5T4; recombinant cyno 5T4-His protein
T1 sequence (looked up): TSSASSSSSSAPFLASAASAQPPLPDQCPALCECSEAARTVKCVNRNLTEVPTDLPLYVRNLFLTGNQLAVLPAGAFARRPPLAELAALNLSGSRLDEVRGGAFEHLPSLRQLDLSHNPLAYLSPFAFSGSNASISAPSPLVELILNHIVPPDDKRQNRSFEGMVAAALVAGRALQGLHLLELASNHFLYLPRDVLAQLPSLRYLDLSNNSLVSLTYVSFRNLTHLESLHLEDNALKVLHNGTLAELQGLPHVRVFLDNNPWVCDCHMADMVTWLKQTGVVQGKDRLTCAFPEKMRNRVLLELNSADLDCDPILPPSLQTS
Assay: ELISA, coated antigen
Experimental: ELISA testing was carried out to evaluate the binding of chimeric antibodies to human and cynomolgus, respectively. The antibody portion of naptumomab (NeoTX) that targets 5T4 (abbreviated as naptumomab in the present disclosure), was generated and used as a benchmark.
Briefly, microtiter plates were coated with human and cynomolgus 5T4 proteins at […] in PBS, 100 μl/well at 4° C. overnight, then blocked with 150 μl/well of 1% BSA. Serial dilutions of chimeric antibodies were added to each well and incubated for 1 hour at RT. The plates were washed with PBS/Tween and then incubate with mouse-anti-human IgG Fc antibody conjugated with Horse Radish Peroxidase (HRP) for 30 mins at RT. After washing, the plates were developed with TMB substrate and analyzed by spectrophotometer at OD 450 nm. All the 5T4 chimeric mAbs bound to human and cynomolgus 5T4 (FIG. 1-2 and Table 3).

For “naptumomab (antibody portion of naptumomab (NeoTX) that targets 5T4)”, the EC50 was 2.02 nM, 0.16 nM, 0.17 nM [lines of one column].

Not every entry of the source has a single result; some have several. This list holds those alone. An entry can have further records. The records of an entry seem to repeat one measurement; a mean can stand among them.
